Data taken from the supplement of paper PMC8728848.
Some of the results follow.

What was measured:
Experiment in all cases: glycan array binding signal (z-score within array); higher = stronger binding
Details in all cases: glycan notation: IUPAC condensed, linker removed
[1] = target: Fuc(a1-3)[Gal(b1-4)]Glc6S
Outline: (§1)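 Glycan array data came from 3228 arrays in the Consortium for Functional Glycomics database, and only arrays with an available protein sequence were kept. Glycan names were put into IUPAC-condensed notation, and columns mapping to the same glycan were averaged. The binding signal is a within-array Z-score, averaged across arrays of one protein sequence run at different concentrations or buffers and across linkers. A negative Z-score can be read as non-binding.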

[2] = target: Fuc(a1-3)[Gal(b1-4)]GlcNAc
Outline: as §1

[3] = target: Fuc(a1-3)[Gal(b1-4)]GlcNAc(b1-2)Man(a1-3)[Fuc(a1-3)[Gal(b1-4)]GlcNAc(b1-2)Man(a1-6)]Man(b1-4)GlcNAc(b1-4)GlcNAc
Outline: as §1

[4] = target: Fuc(a1-3)[Gal(b1-4)]GlcNAc(b1-2)Man(a1-6)[Gal(b1-4)GlcNAc(b1-2)Man(a1-3)]Man(b1-4)GlcNAc(b1-4)GlcNAc
Outline: as §1

[5] = target: Fuc(a1-3)[Gal(b1-4)]GlcNAc(b1-3)Gal(b1-3)[Fuc(a1-4)]GlcNAc
Outline: as §1

[6] = target: Fuc(a1-3)[Gal(b1-4)]GlcNAc(b1-4)Gal(b1-4)[Fuc(a1-3)]GlcNAc
Outline: as §1

[7] = target: Fuc(a1-3)[Gal(b1-4)]GlcNAc(b1-4)Gal(b1-4)[Fuc(a1-3)]GlcNAc(b1-4)Gal(b1-4)[Fuc(a1-3)]GlcNAc
Outline: as §1

[8] = target: Fuc(a1-3)[Gal(b1-4)]GlcNAc6S
Outline: as §1

[9] = target: Fuc(a1-3)[Gal3S(b1-4)]Glc6S
Outline: as §1

[10] = target: Fuc(a1-3)[Gal3S(b1-4)]GlcNAc
Outline: as §1

[11] = target: Fuc(a1-3)[Gal3S(b1-4)]GlcNAc6S
Outline: as §1

[12] = target: Fuc(a1-3)[GalNAc(b1-4)]GlcNAc
Outline: as §1

[13] = target: Fuc(a1-3)[Neu5Ac(a2-3)]Gal(b1-4)GlcNAc(b1-3)GalNAc
Outline: as §1

[14] = target: Fuc(a1-4)GlcNAc
Outline: as §1

[15] = target: Fuc(b1-3)GlcNAc
Outline: as §1

[16] = target: Gal(a1-2)Gal
Outline: as §1

[17] = target: Gal(a1-3)Gal
Outline: as §1

[18] = target: Gal(a1-3)Gal(b1-3)GlcNAc
Outline: as §1

[19] = target: Gal(a1-3)Gal(b1-4)Glc
Outline: as §1

[20] = target: Gal(a1-3)Gal(b1-4)GlcNAc
Outline: as §1

[21] = target: Gal(a1-3)Gal(b1-4)[Fuc(a1-3)]GlcNAc
Outline: as §1

[22] = target: Gal(a1-3)Gal(b1-4)[Fuc(a1-3)]GlcNAc(b1-2)Man(a1-3)[Gal(a1-3)Gal(b1-4)[Fuc(a1-3)]GlcNAc(b1-2)Man(a1-6)]Man(b1-4)GlcNAc(b1-4)GlcNAc
Outline: as §1

[23] = target: Gal(a1-3)GalNAc
Outline: as §1

[24] = target: Gal(a1-3)[Gal(a1-4)]Gal(b1-4)GlcNAc
Outline: as §1

[25] = target: Gal(a1-4)Gal(b1-4)Glc
Outline: as §1

[26] = target: Gal(a1-4)Gal(b1-4)GlcNAc
Outline: as §1

[27] = target: Gal(a1-4)Gal(b1-4)GlcNAc(b1-3)Gal(b1-4)Glc
Outline: as §1

[28] = target: Gal(a1-4)GlcNAc
Outline: as §1

[29] = target: Gal(a1-6)Glc
Outline: as §1

[30] = target: Gal(b1-2)Gal
Outline: as §1

[31] = target: Gal(b1-3)Gal
Outline: as §1

[32] = target: Gal(b1-3)Gal(b1-4)GlcNAc
Outline: as §1

[33] = target: Gal(b1-3)Gal(b1-4)GlcNAc(b1-2)Man(a1-3)[Gal(b1-3)Gal(b1-4)GlcNAc(b1-2)Man(a1-6)]Man(b1-4)GlcNAc(b1-4)GlcNAc
Outline: as §1

[34] = target: Gal(b1-3)GalNAc
Outline: as §1

[35] = target: Gal(b1-3)GalNAc(a1-3)[Fuc(a1-2)]Gal(b1-4)Glc
Outline: as §1

[36] = target: Gal(b1-3)GalNAc(a1-3)[Fuc(a1-2)]Gal(b1-4)GlcNAc
Outline: as §1

[37] = target: Gal(b1-3)GalNAc(b1-3)Gal(a1-4)Gal(b1-4)Glc
Outline: as §1

[38] = target: Gal(b1-3)GalNAc(b1-4)Gal(b1-4)Glc
Outline: as §1

[39] = target: Gal(b1-3)GalNAc(b1-4)[Neu5Ac(a2-3)]Gal(b1-4)Glc
Outline: as §1

[40] = target: Gal(b1-3)GlcNAc
Outline: as §1

[41] = target: Gal(b1-3)GlcNAc(b1-2)Man(a1-3)[Gal(b1-3)GlcNAc(b1-2)Man(a1-6)]Man(b1-4)GlcNAc(b1-4)GlcNAc
Outline: as §1

[42] = target: Gal(b1-3)GlcNAc(b1-2)Man(a1-3)[Gal(b1-3)GlcNAc(b1-2)Man(a1-6)]Man(b1-4)GlcNAc(b1-4)[Fuc(a1-6)]GlcNAc
Outline: as §1

[43] = target: Gal(b1-3)GlcNAc(b1-3)Gal(b1-3)GlcNAc
Outline: as §1

[44] = target: Gal(b1-3)GlcNAc(b1-3)Gal(b1-4)Glc
Outline: as §1

[45] = target: Gal(b1-3)GlcNAc(b1-3)Gal(b1-4)GlcNAc
Outline: as §1

B1: MRCL (Homo sapiens), NP_872425.1 (protein)
chain: ATKVHFPFHTCDLRIDGDCFMVSSEADTYYRARMKCQRKGGVLAQIKSQKVQDILAFYLGRLETTNEVTDSDFETRNFWIGLTYKTAKDSFRWATGEHQAFTSFAFGQPDNHGLVWLSAAMGFGNCVELQASAAFNWNNQRCKTRNRYICQFAQEHISRWGPGS
For B1, the “glycan array binding signal (z-score)” value [1] was -0.024, the “glycan array binding signal (z-score)” value [2] was -0.302 and the “glycan array binding signal (z-score)” value [3] was -0.635. For the same binder, the “glycan array binding signal (z-score)” value [4] was -0.656, the “glycan array binding signal (z-score)” value [5] was -0.385 and the “glycan array binding signal (z-score)” value [6] was -0.365. For the same binder, the “glycan array binding signal (z-score)” value [7] was 0.527, the “glycan array binding signal (z-score)” value [8] was -0.592 and the “glycan array binding signal (z-score)” value [9] was 0.152. The “glycan array binding signal (z-score)” value [10] was -0.598, the “glycan array binding signal (z-score)” value [11] was 0.56 and the “glycan array binding signal (z-score)” value [12] was -0.706. The “glycan array binding signal (z-score)” value [13] was 1.51, the “glycan array binding signal (z-score)” value [14] was -0.459 and the “glycan array binding signal (z-score)” value [15] was -0.532. For the same binder, the “glycan array binding signal (z-score)” value [16] was 0.689, the “glycan array binding signal (z-score)” value [17] was -0.533 and the “glycan array binding signal (z-score)” value [18] was -0.68. For the same binder, the “glycan array binding signal (z-score)” value [19] was -0.723, the “glycan array binding signal (z-score)” value [20] was 0.565 and the “glycan array binding signal (z-score)” value [21] was -0.578. The “glycan array binding signal (z-score)” value [22] was 2.11, the “glycan array binding signal (z-score)” value [23] was -0.066 and the “glycan array binding signal (z-score)” value [24] was 0.889. The “glycan array binding signal (z-score)” value [25] was 0.266, the “glycan array binding signal (z-score)” value [26] was 0.645 and the “glycan array binding signal (z-score)” value [27] was -0.653. The “glycan array binding signal (z-score)” value [28] was -0.585, the “glycan array binding signal (z-score)” value [29] was 0.048 and the “glycan array binding signal (z-score)” value [30] was -0.726. For the same binder, the “glycan array binding signal (z-score)” value [31] was 0.172, the “glycan array binding signal (z-score)” value [32] was 0.514 and the “glycan array binding signal (z-score)” value [33] was -0.51. The “glycan array binding signal (z-score)” value [34] was -0.169, the “glycan array binding signal (z-score)” value [35] was 2.71 and the “glycan array binding signal (z-score)” value [36] was -0.525. The “glycan array binding signal (z-score)” value [37] was -0.687, the “glycan array binding signal (z-score)” value [38] was -0.601 and the “glycan array binding signal (z-score)” value [39] was 0.141. The “glycan array binding signal (z-score)” value [40] was 1.16, the “glycan array binding signal (z-score)” value [41] was -0.381 and the “glycan array binding signal (z-score)” value [42] was 0.784. The “glycan array binding signal (z-score)” value [43] was -0.189, the “glycan array binding signal (z-score)” value [44] was -0.232 and the “glycan array binding signal (z-score)” value [45] was -0.501.
